Reference: PubChem BioAssay AID588453 (National Center for Advancing Translational Sciences (NCATS), 2011)
“And” between values parts separate entries of the source, which are not always exact repeats. Equal values may be shown once. Out of some 390,000 compounds screened, about 4,000 (1%) were called active. This list was built around the results that the source calls inconclusive (neither active nor inactive); the mix of calls is not that of the screen. Calls come from the whole dose curve; as a rule, active = well fitted inhibition curve with a large enough effect; inconclusive = small, poorly fitted or top-dose-only effect; inactive = no such curve, though single readings can be large or run the other way. Where the call is inconclusive, the potency comes from a doubtful curve fit.
% is set by controls: 0 for no effect and ±100 for the full control effect; potency is the fitted concentration of half-maximal effect; tags give direction and shape of the fitted curve.
Note: nearly all actives have a fitted effect of over 65% in size.

Each molecule was assayed against Thioredoxin reductase 1, cytoplasmic (Rattus norvegicus) (UniProt O89049) (assay: qHTS Assay for Inhibitors of Mammalian Selenoprotein Thioredoxin Reductase 1 (TrxR1): qHTS). Settings: recombinant rTrxR1, NADPH fluorescence consumption, selenite substrate; series mostly up to 114 µM.
UniProt O89049, sequence (O89049 whole entry, looked up): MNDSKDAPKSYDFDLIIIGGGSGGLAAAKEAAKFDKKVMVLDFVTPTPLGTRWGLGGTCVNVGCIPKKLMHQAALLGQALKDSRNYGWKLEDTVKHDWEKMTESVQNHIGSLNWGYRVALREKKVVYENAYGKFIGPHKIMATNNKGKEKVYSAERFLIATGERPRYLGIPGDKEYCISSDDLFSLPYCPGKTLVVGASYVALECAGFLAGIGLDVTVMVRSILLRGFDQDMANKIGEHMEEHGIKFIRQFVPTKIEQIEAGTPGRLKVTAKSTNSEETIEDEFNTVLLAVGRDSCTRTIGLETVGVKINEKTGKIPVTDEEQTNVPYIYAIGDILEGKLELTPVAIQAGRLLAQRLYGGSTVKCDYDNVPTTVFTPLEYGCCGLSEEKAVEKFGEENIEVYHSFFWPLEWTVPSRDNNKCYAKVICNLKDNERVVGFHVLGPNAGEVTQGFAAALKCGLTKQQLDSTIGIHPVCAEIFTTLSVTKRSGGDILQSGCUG
Outline: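 Rat TrxR1 (90 nM in the dispensed reagent) was pre-reduced with 400 uM NADPH for 5 min at room temperature, then incubated with compound for 15 min. After 400 uM selenite was added, NADPH fluorescence (Ex 340/Em 450 nm) was followed for 8 min.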
With `FC(F)(F)c1ccccc1NC(=S)N/N=C1\CC2CC=CC12` (stereo not drawn) the Potency was “inactive”. `O=[N+]([O-])/C(C(Cl)=C(Cl)Cl)=C(/NC1CC1)Sc1ccccc1` was tested, and the Potency was inconclusive: 28.2 µM [inhibitor, single point]. For `COc1cccc(NC(=O)CC(C)=O)c1`, the Potency was inconclusive: 15.8 µM [inhibitor, full curve]. In the case of `Cc1ccccc1NC(=S)NNC(=O)c1csc2c1CCC(C)C2` (stereo not drawn), the Potency is reported as inconclusive: 5.62 µM [inhibitor, partial curve, poor fit]. `COc1cccc(Nc2nc(-c3sc(C)nc3C)cs2)c1` was tested, and the Potency was “inactive”. With `Cc1ccc(C)c(NS(=O)(=O)c2ccc3c4c(cccc24)C(=O)N3)c1` the Potency was inconclusive: 89.1 µM [inhibitor, single point]. With `Cc1cnc2ccc3ccccc3c2c1C` the Potency was inconclusive: 89.1 µM [inhibitor, single point]. `Cc1nn(CC(=O)NCCN2CCOCC2)c(=O)c2cc3sccc3n12` was tested, and the Potency was “inactive”. In the case of `Cc1oc(-c2ccccc2F)nc1CS(=O)(=O)CC(=O)NC1CCCC1`, the Potency is reported as inconclusive: 31.6 µM [inhibitor, single point]. In the case of `Cc1ccc(OCC(=O)Nc2ccccc2F)cc1`, the Potency is reported as “inactive”. In the case of `NC[C@@H]1O[C@H](C23CC4CC(CC(C4)C2)C3)Cc2c1ccc(O)c2O`, the Potency is reported as inconclusive: 17.8 µM [inhibitor, full curve] and inconclusive: 29.9 µM [inhibitor, partial curve] and inconclusive: 17.8 µM [inhibitor, partial curve, poor fit]. For `COc1ccccc1-c1c(C)oc2c(CN3CCCC(C)C3)c(O)ccc2c1=O` (stereo not drawn), the Potency was inconclusive: 70.8 µM [inhibitor, single point]. In the case of `FC(F)(F)c1ccccc1/C=N/n1c(COc2ccccc2)n[nH]c1=S`, the Potency is reported as “inactive”. For `O=C(c1ccco1)N1CCN(Cc2nc3ccccc3[nH]2)CC1`, the Potency was inconclusive: 79.4 µM [inhibitor, single point]. In the case of `O=S(=O)(c1ccc2ccccc2c1)n1nc(-c2ccco2)nc1NCc1ccc(F)cc1`, the Potency is reported as inconclusive: 56.2 µM [inhibitor, partial curve, poor fit]. `COc1ccc(-c2[nH]c(-c3ccc(C)cc3)nc2SCC(=O)NC2CCCC2)cc1` was tested, and the Potency was “inactive”. For `COc1ccc(C(=O)NCCCNC(=O)c2cccnc2)cc1OC`, the Potency was “inactive”. In the case of `Cc1cc(C)cc(C(=O)N(Cc2nc(-c3ccc(Cl)cc3)no2)C(C)C)c1`, the Potency is reported as “inactive”. With `O=C(/C=C/c1ccco1)Nc1ccccc1N1CCCC1` the Potency was inconclusive: 89.1 µM [inhibitor, single point]. For `Cn1c(SCC(=O)c2cc3ccccc3o2)nnc1-c1ccccc1`, the Potency was inconclusive: 56.2 µM [inhibitor, single point]. With `Cc1cc(C)cc(NC(=O)/C=C/c2ccc([N+](=O)[O-])s2)c1` the Potency was “inactive”. In the case of `COCCCNC(=O)c1c(NC(=O)c2nc(S(C)(=O)=O)ncc2Cl)sc2c1CCCC2`, the Potency is reported as active: 1.78 µM. With `O=c1[nH]c(Nc2ccc(F)cc2)cc2ccccc12` the Potency was active: 11.2 µM. For `Nc1c(C(=O)Nc2ccccc2)sc2nc3c(c(-c4ccco4)c12)CCC3`, the Potency was inconclusive: 17.8 µM [inhibitor, partial curve]. For `O=C(N/N=C1\NC(=O)C(CO)(CO)S1)c1ccccc1`, the Potency was “inactive”. `CCCCCn1cnc2c(=S)nc(N)[nH]c21` was tested, and the activity change, negative = inhibition was inactive: -1.38% [at 2.29 µM]. With `COc1cccc(CNC(=O)CCS(=O)(=O)c2cccc3nonc23)c1` the Potency was active: 15.8 µM. `CCOC(=O)CCCCC(=O)c1[nH]c(=O)[nH]c1CSc1nc(-c2ccccc2)c(C#N)c(=O)[nH]1` was tested, and the Potency was inconclusive: 22.4 µM [inhibitor, partial curve, poor fit]. For `CN1CCC(N(C)S(=O)(=O)c2ccc(NC(=O)COc3ccc(F)cc3Cl)cc2)CC1`, the Potency was “inactive”. With `COc1cc(/C=C2\SC(c3ccc(C)cc3)=NC2=O)ccc1O` the Potency was inconclusive: 63.1 µM [inhibitor, single point]. `Cc1ccc(-c2nnn(CC(=O)N(Cc3ccccc3F)C(C(=O)NC3CCCC3)c3ccncc3)n2)o1` (stereo not drawn) was tested, and the Potency was inconclusive: 39.8 µM [inhibitor, full curve]. With `COc1ccccc1NC(=O)Cn1c(C)nc2c(sc(=S)n2Cc2ccco2)c1=O` the Potency was inconclusive: 70.8 µM [inhibitor, single point]. In the case of `O=C(CCCCn1c(=S)[nH]c2ccsc2c1=O)NCc1ccco1`, the Potency is reported as inconclusive: 11.2 µM [inhibitor, partial curve]. In the case of `CCOc1ccc(NC(=S)NC(=O)c2c(Cl)cnn2CC)c([N+](=O)[O-])c1`, the Potency is reported as inconclusive: 14.1 µM [inhibitor, full curve]. In the case of `COc1cc(C2c3c(oc4ccccc4c3=O)C(=O)N2CCN2CCOCC2)cc(OC)c1OC` (stereo not drawn), the Potency is reported as inconclusive: 17.8 µM [inhibitor, partial curve, poor fit]. In the case of `C(=Nc1ccc(Nc2ccccc2)cc1)c1ccc2ccccc2c1`, the Potency is reported as inconclusive: 89.1 µM [inhibitor, single point]. For `Cc1c(Cl)cccc1NC(CC(=O)c1ccccc1)C(=O)O` (stereo not drawn), the Potency was active: 3.55 µM. With `COc1ccc(CNC(=O)C(C#N)c2nc3ccccc3nc2N2CCCC2)cc1` (stereo not drawn) the Potency was inconclusive: 89.1 µM [inhibitor, partial curve, poor fit]. For `COc1cccc(C(=O)CN2CCC(NC(=O)NC3CCCCC3)CC2)c1`, the Potency was inconclusive: 44.7 µM [inhibitor, partial curve, poor fit]. In the case of `Cc1cccc(NC(=O)C2SC(=Nc3c(C)cccc3C)C(C(=O)N3CCOCC3)=C2N)c1` (stereo not drawn), the Potency is reported as inconclusive: 79.4 µM [inhibitor, single point]. `COc1cccc(NC(=S)NC(=O)c2c(Cl)c(C)nn2C)c1` was tested, and the Potency was inconclusive: 3.55 µM [inhibitor, full curve]. With `Oc1[nH]c(=S)sc1C=C1N=c2ccccc2=N1` the Potency was “inactive”. For `Cc1ccc2nc(N/N=C/c3ccco3)cc(C)c2c1`, the Potency was inconclusive: 89.1 µM [inhibitor, single point]. `OCC1CCCCN1C(=S)Nc1ccc(Cl)cc1Cl` (stereo not drawn) was tested, and the Potency was inconclusive: 0.891 µM [inhibitor, full curve, poor fit]. For `Cc1cc(-c2csc(NC(=O)c3ccc(=O)n(C)n3)n2)c(C)n1CC1CCCO1` (stereo not drawn), the Potency was inconclusive: 8.91 µM [inhibitor, partial curve]. With `CCOc1cc(Br)cc(/C=C2\SC(=Nc3ccccc3)NC2=O)c1O` the Potency was “inactive”. `N#Cc1c(=O)c2nc(NCc3ccccc3)ncc2n2ccccc12` was tested, and the Potency was inconclusive: 79.4 µM [inhibitor, single point]. With `COc1cccc(/C=C2/C(=O)NN(c3ccc(C)c(C)c3)C2=O)c1` the Potency was inconclusive: 10 µM [inhibitor, partial curve, poor fit]. With `O=C(/C=C/c1ccco1)NCCc1ccccc1` the Potency was inconclusive: 89.1 µM [inhibitor, partial curve, poor fit]. `CCOc1ccc(C(=O)CC(C(=O)O)N2CCN(Cc3ccccc3)CC2)cc1` (stereo not drawn) was tested, and the Potency was active: 15.8 µM. With `Cc1cccc(N2CC(C(=O)Nc3nnc(SCCN4CCOCC4)s3)CC2=O)c1` (stereo not drawn) the Potency was inconclusive: 79.4 µM [inhibitor, partial curve]. For `O=C(NC(=C(Cl)Cl)S(=O)(=O)c1ccc(Cl)cc1)c1ccccc1`, the Potency was active: 44.7 µM. In the case of `COc1ccc(-c2cc(-c3ccco3)[nH]c(=O)c2C#N)cc1`, the Potency is reported as inconclusive: 12.6 µM [inhibitor, partial curve]. In the case of `COc1cc(C(=O)NC(=S)Nc2ccc([N+](=O)[O-])cc2C)cc(OC)c1OC`, the Potency is reported as inconclusive: 22.4 µM [inhibitor, full curve]. In the case of `COc1ccc(NC(=O)/C(=C\c2ccco2)NC(=O)c2ccco2)cc1`, the Potency is reported as inconclusive: 25.1 µM [inhibitor, full curve]. In the case of `Cc1c(-c2n[nH]c(=S)n2-c2ccc(C(F)(F)F)cc2)nnn1-c1ccccc1`, the Potency is reported as inconclusive: 35.5 µM [inhibitor, partial curve, poor fit]. In the case of `O=C(N/N=C/C1CC=CCC1)c1ccc(Cl)cc1O` (stereo not drawn), the Potency is reported as inconclusive: 89.1 µM [inhibitor, single point]. `COc1ccc(-c2nc(Cn3c(SCc4ccc(F)cc4)nc4ccncc43)c(C)o2)cc1OC` was tested, and the Potency was inconclusive: 25.1 µM [inhibitor, single point]. With `COc1ccccc1/C=C/c1nc(C#N)c(N2CCCCCC2)o1` the Potency was inconclusive: 39.8 µM [inhibitor, single point]. `O=C(NC(=S)NNS(=O)(=O)c1ccccc1)c1ccc([N+](=O)[O-])cc1` was tested, and the Potency was active: 14.1 µM. `COc1ccc(Cc2n[nH]c(=S)n2NC(=O)Nc2ccc(C)cc2)cc1` was tested, and the Potency was inconclusive: 1.58 µM [inhibitor, full curve]. With `COC(=O)C1C(OC)=CC(=O)C2CCCCC21` (stereo not drawn) the Potency was inconclusive: 89.1 µM [inhibitor, single point]. For `CCOC(=O)c1cc2occc2n1CC(=O)N1CCCc2ccccc21`, the Potency was inconclusive: 50.1 µM [inhibitor, partial curve]. With `O=c1cc(N2CCN(c3ccccc3)CC2)[nH]c(=O)n1-c1ccccc1` the Potency was inconclusive: 70.8 µM [inhibitor, single point]. With `CCC(=O)N1c2ccc(S(=O)(=O)NCc3cccc(OC)c3)cc2CC1C` (stereo not drawn) the Potency was “inactive”. `Cc1[nH]c(N)nc(=S)c1CCCNc1ccccc1` was tested, and the Potency was inconclusive: 89.1 µM [inhibitor, single point]. In the case of `CCOC(=O)C(=O)Nc1nnc2n1CCS2`, the Potency is reported as “inactive”. For `O=C(O)c1ccccc1/C=N/Nc1ccc(S(=O)(=O)N2CCCC2)cc1[N+](=O)[O-]`, the Potency was inconclusive: 44.7 µM [inhibitor, full curve, poor fit].
